Reference: PubChem BioAssay (NCI)
The source holds several records for some structures; these can differ, active in one and inactive in another.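 Values shown are percent growth following 48 h exposure of cells in 96-well plates to a single concentration of compound; below 10 was considered active.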 Not every entry of the source has a single result; some have several. This list holds those alone. The source may hold further records. The screen tested this drug many times, at its own concentration, as given; each value is one run. Brackets with × count equal records among those shown.

Tested on: SR leukemia
Assay: NCI-60 one-dose screen, 48 h (100 = growth as untreated, 0 = no growth, -100 = all killed)
Details: 0.25 µM

COc1cccc2c1C(=O)c1c(O)c3c(c(O)c1C2=O)C[C@@](O)(C(=O)CO)C[C@@H]3OC1CC(N)C(O)C(C)O1 (stereo not given in full)
growth (runs of 2006): active: 4.56%, -36.9%
growth (runs of 2007): active: 4.44, -44.9, -34.7, -23.9, -27.6, -10.6, -8.81, -25.3, -3.62, -12.5, 0.405, -29.7, -1.97, -18, -36.8, 5.61, -16.4, -23.6, -8.62, -18.6, 5.07, -2.4 (2×), 0.966, -1.82, -7.41, -2.37% and inactive: 36.3, 10.7, 41.1, 46.2, 61.7, 11, 45.1, 67, 24.3, 19.5%
growth (runs of 2008): inactive: 40.4, 17.2, 32.7, 37.7, 70.4, 41.3, 20.9, 69.7, 42, 25.3, 26.2, 46.2, 73.5, 13.3, 46.5, 96.4, 60.5, 66.1, 74.4, 28.7, 17.7, 26.3, 17.4, 32.8, 23.5, 41.8, 22.4% and active: 0.717, -27.4, -18.8, -29.7, -20.1, -33.6, -28.7, -26.7, -5.99, -8.58, -16.5, -31.5, -9.05, -43.7, -45.2, -49.8, -1.25, -1.58, -15.1, -25.8, 3.78, -43, -18.6, -22.3%
growth (runs of 2009): active: -13.5, -14.7, -12.7, -12.4, -27.3, -23.2, -20.9, -24.6, -52.3, -51.2, 7.35, -8.01, -7.59, 0.673, -8.41, 8.03, -6.55, 1.82, 5, 9.61, 3.52 (2×), 7.52, -0.583, -16.3, 6.88, 8.37, 7.76, -8.79, -6.02% and inactive: 24.2, 26.4, 17.7, 10.6, 18.5, 19.6, 21.9, 14.7, 15.4, 14, 22.3, 30.4, 14.8, 28.4, 17, 17.6, 16.6, 13.2, 20, 18.1%
growth (runs of 2010): inactive: 19, 19.9, 21.7, 20.7, 18.3, 19.4, 17.4, 18.1, 12.6 (2×), 17.7 (2×), 13.8, 17.1, 16.5, 15.2, 11.7, 12.5, 10.6, 20.8, 13.1% and active: 6.75, 9.69, 4.64, -0.428, 8.99, 3.78, 4.93, 0.935, 6, 8.59, 3.14, 9.38, 3.27, 5.52, 4.54, 2.34, 3.08, 3.64, 5.99, 6.22, 6.36, 9.81, 7.17, 8.79, 3.71, 4.8, -2.72, 1.49, 0.417%
growth (runs of 2011): active: -8.56, -5.27, 1.73, 5.82, -10.1, 6.34, -17.7, 4.93, 3.41, -3.56, 5.8, 1.97, 6.14, -1.84, 1.77, 9.17, 8.81, 1.81, -5.81, 2.49, 5.25, 5.43, 9.85, 8.84, 4.55, 5.74, 0.344, 6.07, -9.26% and inactive: 22, 10.1, 15.4, 15.9, 12.1 (2×), 39.4, 10, 11.7 (2×), 20.6, 17.7, 18.1, 10.4, 12.9, 13.4, 14, 11.2, 15.8% (2×)
growth (runs of 2012): active: 4.18, -6.85, 5.15, 5.11, 0.735, 5.34, 4.22, -3.91, -16.8, -4.07, -22.9, -16.3, -28.7, -22.4, -24.6, -6.09, -24.2, -17.2, -21.8, -3.43, -11.2 (2×), 3.32, 0.0855, 8.28, 1.6, 9.12, -1.39, 6.93, 6.15, 4.14, 9.39, 6.66, 5.43, 1.87, -1.94, 7.94, -5.93, -4.95, 9.56, 8.55, 4.67, -44.7, -14.7, 4.84, -48.2, 4.57, -2.98, -20.4% and inactive: 22.6, 18.7, 23.7, 16.6, 11.2, 11.9, 10.8, 11.1, 15.3, 11.7, 22.9, 18.5, 10.9, 16.1, 16.2, 21%
growth (runs of 2013): active: -0.672, -15.5, -4.83, -0.0567, 9.06, -0.208, 5.89, 4.73, 5.54, -3.48, -0.345, 5.01, -14.1, 2.56, 7.58, 0.957, 1.5, 8.86, 4.28, 0.0501, 0.85, -5.69, 7.51, -13.9, 6.7, -2.25, 5.24, -5.82, 9.77, 8.15, 6.55, 5.88, 7.33, 6.62, 2.61, 2.65, 6.26, 4.48, 2.38, 9.84, 4.51, 1.72, 6.73, 3.67% and inactive: 13.2 (2×), 14.6 (2×), 22.9, 10.7, 27.3, 15.1, 13.3 (2×), 15.6 (2×), 16.5, 12.7, 12, 12.8, 15, 18.8, 19.3, 19.9, 17.4, 18.3, 11.5, 10.6, 10.9, 13.1% (2×)
growth (runs of 2014): active: 9.64, 2.6, 8.58 (2×), 1.61, 3.28, 5.76, 8.74, 1.86, 8.36, -1.06 (2×), 7.11, 9.18, 5.74, -0.0621, 2.67, 7.29, 3.95, 7.26, 6.85, 8.2, 9.47, 8.28, 9, 3.63, 7.09, 9.85, 7.03, 6.4, -4.45, 1.04, 5.88, 4.11, -10.3, -14.2, 7.1, 6.98, 9.53, 3.13, 2.41, 8.89, -5.45, 5.92, 8.42, 7.25% and inactive: 17.9, 10.9 (2×), 15, 14.5, 14.2, 10.7, 10.4 (2×), 11.5 (2×), 11.6, 11.1 (3×), 12.2, 12.1 (2×), 14.1, 15.4, 14.4, 23.2, 17.8, 13.9, 13.7, 23.8%
growth (runs of 2015): inactive: 14.8, 15 (3×), 11.5 (2×), 13.8, 13.4, 15.9, 12.9, 17.8, 11.6, 18.2, 19.1, 13.9, 15.4, 16.5, 13.2, 13, 14.6, 16, 14, 15.1, 14.7, 14.5, 16.1, 25.5, 20.3, 13.1, 11.1% and active: 8.27, 5.98, 4.27, 6.21, 9.41, 4.46, 2.25, 1.01, 3.93, 6.75, 2.2, 1.58, 1.02, 1.67, 8.6, 9.64, 9.54, 5.08, 5.59, 5.92, 5.38, 7.22, 3.83, 9.14, 7.27, 9.26, 9.5, 9.89, 5.46, 7.71, 7.65, 6.92, 3.1, 5.75, 0.193, -4.09, 0.509, -1.34, 5.83, 5.82, 0.403, 1.51, 7.7, 2.7, 2.61, 8.04, 0.573, 2.81, 8.07%
growth (runs of 2016): active: 8.52, 5.33, 2.57, 5.29, 6.57, 2.71, 4.57, -2.23, 7.17, 2.98, 9.07, 7.95, 5.44, 9.57, 8.13, 5.09, 8.49, 8.18 (2×), -3.25, 3.97, 9.55, 8.92, 9.67, 6.99, 9.31, 6.48, 5.73, 8.06, 6.56, 9.62% and inactive: 10.4, 14.5 (2×), 15 (3×), 16.2 (2×), 18.5, 18.8, 14.9, 11.7, 14.7, 18.1, 14.8, 13.3 (2×), 13.5 (3×), 11.6 (2×), 13.2, 13.1, 16.6 (2×), 14.2, 15.3, 10.8, 14.1, 14.6, 12.9, 13.4, 11.1 (2×), 10.6, 12.7, 11 (2×), 17.4, 19, 15.8, 23.9, 24.4, 15.7, 18.7, 17.8, 10.1, 17.2, 15.9%
growth (runs of 2017): inactive: 10.9, 13.3, 13.5, 15.1, 17.6, 11.2, 15.9, 14.5, 14, 15, 10, 12.1, 14.2, 13.1, 11.6 (2×), 13.7% and active: 9.12, 9.04, 7.36, 6.79, 5.96, 5.04, 3.58, 7.29, 6.26, 6.59, 4.18, 3.84, 7.54, 5.25, -0.758, 9.98, 6.43, 3.66, 7.57 (2×), 6.62, 6.82 (2×), 8.53, 8.89, 5.78, 7.58, 1.76, 8.76, 7.84, 7, 6.54, 9.76, 7.89 (2×), 4.84, 8.29, 7.94, 7.92, 5.58, 5.16, 6, 9.23, 8.46, 6.51, 9.62, 7.93, 4.83, 3.06 (2×), 2.79, 4.51, 2.07, -1.79%
growth (runs of 2018): inactive: 10.7 (2×), 10.8, 12.3, 13, 12.6, 13.5 (2×), 36.3, 14.5, 28.4, 22.6, 22.7, 13.9 (2×), 12.5, 13.2, 14.7, 25.6, 22.8 (2×), 11, 13.7, 16.5, 17.2, 15.4, 18.3, 16, 20.6, 14.4, 15, 12.8, 15.7, 13.8, 17.6% and active: 8.15, 7.66, 7.27, 4.91, 4.83, 6.24, 7.83, 9.77, 6.94, 4.79, -2.77, -4.8%
growth (runs of 2019): inactive: 29.1, 25.1, 13, 13.2, 16.2, 14.1, 13.4, 14.9, 23.9, 20.4, 17.1 (2×), 16.9, 15.6, 22.1, 18.3, 17.8, 15.4, 22.6, 19.4, 11.1, 11.5, 23.6, 25.9, 12.1, 13.3, 10.6% and active: 7.72, 7.26, 3.63, 8.38, 9.54, 9.71, 8.99, 8.09, 8.9, 7.97, 6.69, 4.34, 7.13, 4.87, 4.42, 6.83, -2.13%
growth (runs of 2020): active: 1.26, 2.59, 7.29, 4.84, 7.89, 5.72, 5.5, 4.55, -0.393, 4.71, 9.6, 5.45, 8.81% and inactive: 26.6, 15.9, 12.5, 13.1, 11, 14.6, 13.5, 17.7, 18.7%
